Results reported in the supplement of paper PMC12217912.
The other results are listed elsewhere or left out. The full chains were built here from the parent and the listed change. Inactive controls read about 0.05.

B1: TEV protease; numbered along this chain (parent)
chain: MGESLFKGPRDYNPISSSICHLTNESDGHTTSLYGIGFGPFIITNKHLFRRNNGTLVVQSLHGVFKVKDTTTLQQHLVDGRDMIIIRMPKDFPPFPQKLKFREPQREERICLVTTNFQTKSMSSMVSDTSCTFPSGDGIFWKHWIQTKDGQCGSPLVSTRDGFIVGIHSASNFTNTNNYFTSVPKNFMELLTNQEAQQWVSGWRLNADSVLWGGHKVFMVKPEEPFQPVKEATQL

Variants of: B1
Test: raw area under fraction-flipped curve 0-4 h after induction (AUC4h, not background-subtracted), DNA-recorder readout of cleavage of the substrate (dimensionless); higher = more cleavage of the substrate by the protease variant
Conditions: temperature: 34 °C; time window: 0-4 h after rhamnose induction
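Further: Bxb1 expression induced with 0.2% (w/v) L-rhamnose at OD600 near 0.5, cultures sampled hourly, flipped fraction per protease–substrate barcode pair counted by paired-end Illumina sequencing.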

| Variant | area with substrate ENLYFCS | area with substrate ENLYFDS | area with substrate ENLYFES | area with substrate ENLYFFS | area with substrate ENLYFIS | area with substrate ENLYFKS | area with substrate ENLYFNS | area with substrate ENLYFPS | area with substrate ENLYFTS | area with substrate ENLYFVS | area with substrate ENLYFWS | area with substrate ENLYFYS | area with substrate ENLYFMS | area with substrate ENLYFSS | area with substrate ENLYFGS | area with substrate ENLYFHS | area with substrate ENLYFRS | area with substrate ENLYFLS |
| --- | --- | --- | --- | --- | --- | --- | --- | --- | --- | --- | --- | --- | --- | --- | --- | --- | --- | --- |
| N186P | 0.0339 | 0.05 | 0.0575 | 0.0652 | 0.0454 | 0.0514 | 0.0628 | 0.0547 | 0.058 | 0.0411 | 0.0518 | 0.0586 |  |  |  |  |  |  |
| L211P | 0.0652 | 0.0669 | 0.0682 | 0.0633 | 0.0608 |  | 0.0641 | 0.0589 |  |  | 0.0507 |  | 0.0642 | 0.0755 |  |  |  |  |
| T70Q |  |  | 0.0527 | 0.0644 | 0.0501 | 0.0485 |  | 0.0575 | 0.0858 |  |  |  | 0.0629 |  | 0.0674 |  |  |  |
| M122N |  | 0.0562 | 0.0592 | 0.0647 | 0.0675 | 0.056 | 0.0854 | 0.0636 | 0.0595 | 0.0776 |  |  | 0.0647 |  |  | 0.0595 |  |  |
| S4T |  |  | 0.0798 | 0.0458 |  | 0.0658 | 0.0644 | 0.0437 | 0.0684 |  |  | 0.0562 | 0.0766 |  |  |  | 0.0504 |  |
| G150Q | 0.0447 | 0.0532 |  |  |  | 0.0553 |  | 0.0505 |  | 0.0669 |  | 0.0593 | 0.0574 | 0.0598 |  | 0.0748 | 0.065 | 0.0573 |
| T174P | 0.0555 |  |  | 0.0586 | 0.059 | 0.0534 | 0.063 | 0.0559 | 0.0516 |  |  |  | 0.059 |  |  |  | 0.0571 | 0.06 |
| K230I | 0.0578 |  | 0.0617 | 0.0702 | 0.0453 |  | 0.0647 | 0.0635 | 0.0471 | 0.0617 |  |  | 0.0639 | 0.071 | 0.0504 |  | 0.0535 | 0.0621 |
| W199L | 0.0583 |  | 0.062 |  | 0.0617 |  | 0.0609 | 0.0592 |  | 0.0382 | 0.052 | 0.0527 | 0.0597 |  | 0.0732 |  | 0.0611 |  |
| S201A | 0.0728 |  | 0.0501 | 0.0797 | 0.0843 | 0.0559 | 0.0594 |  | 0.0485 |  | 0.0631 |  | 0.0637 | 0.0607 |  | 0.0519 | 0.0596 | 0.0578 |
| L156C | 0.0499 | 0.0692 | 0.0738 | 0.067 | 0.0561 |  | 0.0542 | 0.0552 | 0.0535 | 0.0591 |  | 0.0636 | 0.0732 | 0.0563 | 0.0499 | 0.0579 | 0.0624 |  |
| L156G |  | 0.0482 | 0.0476 | 0.0611 | 0.0586 | 0.0609 |  | 0.0628 | 0.0356 |  |  |  | 0.0628 | 0.0654 |  |  | 0.0406 |  |
| L156S | 0.0468 | 0.0499 | 0.0502 |  | 0.0495 | 0.061 | 0.0631 | 0.0459 | 0.0087 | 0.0638 |  |  | 0.0499 | 0.0524 |  | 0.0502 | 0.0433 | 0.0529 |
| H168C | 0.0777 | 0.0529 | 0.0677 | 0.0506 | 0.0644 | 0.06 |  | 0.0711 | 0.0569 |  | 0.063 |  |  |  |  | 0.0514 |  |  |
| W212Q | 0.0574 | 0.084 | 0.079 | 0.0708 | 0.0589 |  | 0.0454 | 0.0627 | 0.0578 |  | 0.0615 | 0.0511 | 0.0761 | 0.0529 | 0.0592 |  | 0.0612 | 0.0585 |
